Laboratory results: the supplement of paper PMC4604168 (melanoma cell lines)
The other results are listed elsewhere or left out. Many values rest on one well or one pass, so single values are uncertain.

What was measured:
Assay in all cases: cell count relative to DMSO control; melanoma cells; higher = more viable cells
Conditions in all cases: library dose: standard library concentration; 72 h
A101D = test system: A101D
A2058 = test system: A2058
A375 = test system: A375
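Further: cells treated in 1,536-well plates, then fixed and DAPI-stained, with nuclei counted from automated high-throughput microscope images.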

**Q.** Which results are given for Cn1cnc2c(F)c(Nc3ccc(Br)cc3Cl)c(C(=O)NOCCO)cc21 [selumetinib] + COc1cc(N2CCC(N3CCN(C)CC3)CC2)ccc1Nc1ncc(Cl)c(Nc2ccccc2S(=O)(=O)C(C)C)n1 [NVP-TAE684] (first compound 0.075 µM, partner dose 0.4 µM)?
**A.** cell count (A101D): 78.9%; cell count (A2058): 69.5%; cell count (A375): 75.3%

**Q.** With C[C@]1(O)C[C@@H](c2nc(-c3ccc4ccc(-c5ccccc5)nc4c3)c3c(N)nccn32)C1 + CC(C)(C)c1cnc(CSc2cnc(NC(=O)C3CCNCC3)s2)o1 [SNS-032] (first compound 2 µM, partner dose 0.05 µM) as the molecule, how does the cell count (A101D) read?
**A.** Its cell count is 76.6%.

**Q.** What about the cell count (A2058) of the same molecule?
**A.** Its cell count is 87.8%.

**Q.** And the cell count (A375)?
**A.** Its cell count is 75%.

**Q.** CCN(CC)CCNC(=O)c1c(C)[nH]c(/C=C2\C(=O)Nc3ccc(F)cc32)c1C [sunitinib] + O=C(O)C(=O)Nc1sc2c(c1C(=O)O)CCNC2 [TCS401] (first compound 2 µM, partner dose 8.33333 µM) was tested. Which cell count (A101D) did it give?
**A.** The cell count was 48.1%.

**Q.** And the cell count (A2058)?
**A.** Its cell count is 80.6%.

**Q.** What about the cell count (A375) of the same molecule?
**A.** The cell count was 100%.

**Q.** What does the source list for Cn1cnc2c(F)c(Nc3ccc(Br)cc3Cl)c(C(=O)NOCCO)cc21 [selumetinib] + NCC(=O)Nc1ccc(-n2nc(C(F)(F)F)cc2-c2ccc3c(ccc4ccccc43)c2)cc1 [OSU03012] (first compound 0.075 µM, partner dose 5 µM)?
**A.** cell count (A101D): 95.8%; cell count (A2058): 107%; cell count (A375): 71.7%

**Q.** Which cell count (A101D) does the source give for CCN(CC)CCNC(=O)c1c(C)[nH]c(/C=C2\C(=O)Nc3ccc(F)cc32)c1C [sunitinib] + Cn1cncc1[C@@](N)(c1ccc(Cl)cc1)c1ccc2c(c1)c(-c1cccc(Cl)c1)cc(=O)n2C [tipifarnib] (first compound 2 µM, partner dose 0.05 µM) here?
**A.** Its cell count is 52.1%.

**Q.** And the cell count (A2058)?
**A.** The cell count was 57%.

**Q.** What about the cell count (A375) of the same molecule?
**A.** Its cell count is 93.2%.

**Q.** Which results are given for Cn1cnc2c(F)c(Nc3ccc(Br)cc3Cl)c(C(=O)NOCCO)cc21 [selumetinib] + CS(=O)(=O)CCNCc1ccc(-c2ccc3ncnc(Nc4ccc(OCc5cccc(F)c5)c(Cl)c4)c3c2)o1 [lapatinib] (first compound 0.075 µM, partner dose 4 µM)?
**A.** cell count (A101D): 68.9%; cell count (A2058): 83.9%; cell count (A375): 113%

**Q.** How did the cell count (A101D) turn out when C[C@]1(O)C[C@@H](c2nc(-c3ccc4ccc(-c5ccccc5)nc4c3)c3c(N)nccn32)C1 + CN(NC(=O)CC(=O)NN(C)C(=S)c1ccccc1)C(=S)c1ccccc1 [STA4783] (first compound 2 µM, partner dose 0.03 µM) was run?
**A.** The cell count was 56.5%.

**Q.** And the cell count (A2058)?
**A.** The cell count was 6.21%.

**Q.** And the cell count (A375)?
**A.** Its cell count is 90.1%.

**Q.** With COc1cc([C@@H]2c3cc4c(cc3[C@@H](O[C@@H]3O[C@@H]5CO[C@@H](C)O[C@H]5[C@H](O)[C@H]3O)[C@H]3COC(=O)[C@H]23)OCO4)cc(OC)c1O [etoposide] + OCCn1cc(-c2cnc3nnn(Cc4ccc5ncccc5c4)c3n2)cn1 [PF04217903] (first compound 0.1 µM, partner dose 5 µM) as the molecule, how does the cell count (A101D) read?
**A.** The cell count was 91%.

**Q.** What about the cell count (A2058) of the same molecule?
**A.** The cell count was 87.5%.

**Q.** What about the cell count (A375) of the same molecule?
**A.** Its cell count is 77.7%.

**Q.** COc1cc([C@@H]2c3cc4c(cc3[C@@H](O[C@@H]3O[C@@H]5CO[C@@H](C)O[C@H]5[C@H](O)[C@H]3O)[C@H]3COC(=O)[C@H]23)OCO4)cc(OC)c1O [etoposide] + O=C(CCCCCCC(=O)Nc1ccccc1)NO [vorinostat] (first compound 0.1 µM, partner dose 0.4 µM) was tested. Which cell count (A101D) did it give?
**A.** The cell count was 80.9%.

**Q.** What about the cell count (A2058) of the same molecule?
**A.** Its cell count is 70.2%.

**Q.** What about the cell count (A375) of the same molecule?
**A.** Its cell count is 96.7%.

**Q.** How did the cell count (A101D) turn out when COc1cc([C@@H]2c3cc4c(cc3[C@@H](O[C@@H]3O[C@@H]5CO[C@@H](C)O[C@H]5[C@H](O)[C@H]3O)[C@H]3COC(=O)[C@H]23)OCO4)cc(OC)c1O [etoposide] + CC1(C)CCC(c2ccc(Cl)cc2)=C(CN2CCN(c3ccc(C(=O)NS(=O)(=O)c4ccc(N[C@H](CCN5CCOCC5)CSc5ccccc5)c(S(=O)(=O)C(F)(F)F)c4)cc3)CC2)C1 [ABT263] (first compound 0.1 µM, partner dose 2 µM) was run?
**A.** Its cell count is 48.1%.

**Q.** What about the cell count (A2058) of the same molecule?
**A.** Its cell count is 85.7%.

**Q.** And the cell count (A375)?
**A.** Its cell count is 51.2%.

**Q.** With Cn1cnc2c(F)c(Nc3ccc(Br)cc3Cl)c(C(=O)NOCCO)cc21 [selumetinib] + COc1ccc(Cl)c(Nc2nc3ccccc3nc2NS(=O)(=O)c2cccc(NC(=O)C(C)(C)N)c2)c1 [XL147] (first compound 0.075 µM, partner dose 4 µM) as the molecule, how does the cell count (A101D) read?
**A.** The cell count was 69.9%.

**Q.** What about the cell count (A2058) of the same molecule?
**A.** The cell count was 78%.

**Q.** And the cell count (A375)?
**A.** Its cell count is 90.6%.

**Q.** Which results are given for C[C@]1(O)C[C@@H](c2nc(-c3ccc4ccc(-c5ccccc5)nc4c3)c3c(N)nccn32)C1 + Nc1ncn([C@H]2C[C@H](O)[C@@H](CO)O2)c(=O)n1 [decitabine] (first compound 2 µM, partner dose 0.5 µM)?
**A.** cell count (A101D): 64.3%; cell count (A2058): 75.9%; cell count (A375): 78.6%

**Q.** With C[C@]1(O)C[C@@H](c2nc(-c3ccc4ccc(-c5ccccc5)nc4c3)c3c(N)nccn32)C1 + Cn1nnc2c(C(N)=O)ncn2c1=O [temozolomide] (first compound 2 µM, partner dose 10 µM) as the molecule, how does the cell count (A101D) read?
**A.** Its cell count is 75.5%.

**Q.** What about the cell count (A2058) of the same molecule?
**A.** Its cell count is 45.7%.

**Q.** What about the cell count (A375) of the same molecule?
**A.** Its cell count is 81.9%.

**Q.** How did the cell count (A101D) turn out when COc1cc([C@@H]2c3cc4c(cc3[C@@H](O[C@@H]3O[C@@H]5CO[C@@H](C)O[C@H]5[C@H](O)[C@H]3O)[C@H]3COC(=O)[C@H]23)OCO4)cc(OC)c1O [etoposide] + Nc1ncn([C@H]2C[C@H](O)[C@@H](CO)O2)c(=O)n1 [decitabine] (first compound 0.1 µM, partner dose 0.5 µM) was run?
**A.** The cell count was 73.6%.

**Q.** And the cell count (A2058)?
**A.** Its cell count is 74.5%.

**Q.** What about the cell count (A375) of the same molecule?
**A.** The cell count was 101%.

**Q.** How did the cell count (A101D) turn out when CCN(CC)CCNC(=O)c1c(C)[nH]c(/C=C2\C(=O)Nc3ccc(F)cc32)c1C [sunitinib] + O=C(Nc1cccc(Cl)c1)Nc1ncc(CCNc2ncnc3ccsc23)s1 [SNS314] (first compound 2 µM, partner dose 0.004 µM) was run?
**A.** The cell count was 67.3%.

**Q.** What about the cell count (A2058) of the same molecule?
**A.** The cell count was 74.4%.

**Q.** What about the cell count (A375) of the same molecule?
**A.** Its cell count is 99.6%.

**Q.** Which cell count (A101D) does the source give for Cn1cnc2c(F)c(Nc3ccc(Br)cc3Cl)c(C(=O)NOCCO)cc21 [selumetinib] + CCCCCCCCc1ccc(CCC(N)(CO)CO)cc1 [fingolimod] (first compound 0.075 µM, partner dose 10 µM) here?
**A.** The cell count was 8.35%.

**Q.** What about the cell count (A2058) of the same molecule?
**A.** Its cell count is 3.37%.

**Q.** And the cell count (A375)?
**A.** Its cell count is 26.2%.

**Q.** What does the source list for Cn1cnc2c(F)c(Nc3ccc(Br)cc3Cl)c(C(=O)NOCCO)cc21 [selumetinib] + Cn1c(=O)n(-c2ccc(C(C)(C)C#N)cc2)c2c3cc(-c4cnc5ccccc5c4)ccc3ncc21 [NVP-BEZ235] (first compound 0.075 µM, partner dose 0.02 µM)?
**A.** cell count (A101D): 60.7%; cell count (A2058): 82.4%; cell count (A375): 91.2%

**Q.** Which results are given for Cn1cnc2c(F)c(Nc3ccc(Br)cc3Cl)c(C(=O)NOCCO)cc21 [selumetinib] + CN(C)S(=O)(=O)c1ccc2c(c1)/C(=C/c1cc3c([nH]1)CCCC3)C(=O)N2 [SU6656] (first compound 0.075 µM, partner dose 2 µM)?
**A.** cell count (A101D): 65.6%; cell count (A2058): 83.7%; cell count (A375): 100%

**Q.** With CCN(CC)CCNC(=O)c1c(C)[nH]c(/C=C2\C(=O)Nc3ccc(F)cc32)c1C [sunitinib] + C=CCNC1=C2C[C@@H](C)C[C@H](OC)[C@H](O)[C@@H](C)/C=C(\C)[C@H](OC(N)=O)[C@@H](OC)/C=C\C=C(/C)C(=O)NC(=CC1=O)C2=O [Tanespimycin] (first compound 2 µM, partner dose 0.01 µM) as the molecule, how does the cell count (A101D) read?
**A.** Its cell count is 54.8%.

**Q.** What about the cell count (A2058) of the same molecule?
**A.** The cell count was 39.2%.

**Q.** What about the cell count (A375) of the same molecule?
**A.** Its cell count is 92.3%.

**Q.** Which results are given for Cn1cnc2c(F)c(Nc3ccc(Br)cc3Cl)c(C(=O)NOCCO)cc21 [selumetinib] + NC(=O)c1ccc(N(C(N)=O)c2c(F)cccc2F)nc1-c1ccc(F)cc1F [VX702] (first compound 0.075 µM, partner dose 2 µM)?
**A.** cell count (A101D): 83.2%; cell count (A2058): 106%; cell count (A375): 104%

**Q.** CCN(CC)CCNC(=O)c1c(C)[nH]c(/C=C2\C(=O)Nc3ccc(F)cc32)c1C [sunitinib] + CN(C)S(=O)(=O)c1ccc2c(c1)/C(=C/c1cc3c([nH]1)CCCC3)C(=O)N2 [SU6656] (first compound 2 µM, partner dose 2 µM) was tested. Which cell count (A101D) did it give?
**A.** Its cell count is 59.2%.

**Q.** And the cell count (A2058)?
**A.** The cell count was 78.5%.

**Q.** What about the cell count (A375) of the same molecule?
**A.** Its cell count is 140%.

**Q.** Which results are given for C[C@]1(O)C[C@@H](c2nc(-c3ccc4ccc(-c5ccccc5)nc4c3)c3c(N)nccn32)C1 + C[C@@H]1CCN(C(=O)CC#N)C[C@@H]1N(C)c1ncnc2[nH]ccc12 [CP690550] (first compound 2 µM, partner dose 5 µM)?
**A.** cell count (A101D): 112%; cell count (A2058): 114%; cell count (A375): 95%

**Q.** How did the cell count (A101D) turn out when COc1cc([C@@H]2c3cc4c(cc3[C@@H](O[C@@H]3O[C@@H]5CO[C@@H](C)O[C@H]5[C@H](O)[C@H]3O)[C@H]3COC(=O)[C@H]23)OCO4)cc(OC)c1O [etoposide] + CO[C@@H]1[C@H](N(C)C(=O)c2ccccc2)C[C@H]2O[C@]1(C)n1c3ccccc3c3c4c(c5c6ccccc6n2c5c31)C(=O)NC4 [Midostaurin] (first compound 0.1 µM, partner dose 0.4 µM) was run?
**A.** Its cell count is 68.8%.

**Q.** What about the cell count (A2058) of the same molecule?
**A.** The cell count was 41.5%.

**Q.** And the cell count (A375)?
**A.** The cell count was 73.9%.

**Q.** How did the cell count (A101D) turn out when COc1cc([C@@H]2c3cc4c(cc3[C@@H](O[C@@H]3O[C@@H]5CO[C@@H](C)O[C@H]5[C@H](O)[C@H]3O)[C@H]3COC(=O)[C@H]23)OCO4)cc(OC)c1O [etoposide] + NC(=O)Nc1cc(-c2cccc(F)c2)sc1C(=O)N[C@H]1CCCNC1 [AZD7762] (first compound 0.1 µM, partner dose 0.1 µM) was run?
**A.** The cell count was 58.9%.

**Q.** And the cell count (A2058)?
**A.** The cell count was 54.6%.

**Q.** What about the cell count (A375) of the same molecule?
**A.** The cell count was 47.1%.

**Q.** Which cell count (A101D) does the source give for Cn1cnc2c(F)c(Nc3ccc(Br)cc3Cl)c(C(=O)NOCCO)cc21 [selumetinib] + Nc1nc(F)nc2c1ncn2[C@@H]1O[C@H](CO)[C@@H](O)[C@@H]1O [fludarabine] (first compound 0.075 µM, partner dose 1 µM) here?
**A.** The cell count was 82.4%.

**Q.** And the cell count (A2058)?
**A.** Its cell count is 80.8%.

**Q.** What about the cell count (A375) of the same molecule?
**A.** The cell count was 24.3%.
